The supplement of paper PMC11417369
± gives the standard deviation of the averaged measurements. Some of the results follow.

tested on: PfAP2-LT AP2 domain (GST-tagged); assay: gcPBM binding intensity (ln(normalized median fluorescence intensity)); higher = stronger DNA binding
Summary of the method: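 Plasmodium falciparum DNA-binding domains carrying a GST tag were expressed in E. coli and applied for 1 h, at about 25 μg on average, to an Agilent 4 × 180k array. The array held primer-extended double-stranded 36-bp intergenic genomic probes together with negative controls, and binding took place in 1× PBS with 1% milk, 0.2 mg/ml BSA, 0.5% salmon testes DNA and 0.03% Triton X-100. An Alexa488 anti-GST antibody detected bound protein, and the array was scanned at 488 nm. Binding intensity is taken as the highest Masliner-normalised natural-log median intensity across replicate spots of either probe orientation.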

Sequence | gcPBM binding intensity (ln)
TATTTTTTTTTATTTTTTTTTATTTTGTTTTTTTAT [TGCATGCA_negctrl_site315] | 8.54 ± 0.62
ATTAAAATATAAGTCACACATATATATATATATATA [CACACA_site6145] | 9.68 ± 0.057
ATATATTTTCCTTCAAGTACACATATAAATGTGTAT [XGTACX_site6633] | 8.9 ± 0.4
ACATATATTTTTTTTTGTACATATAAATATATATAT [XGTACX_site6491] | 8.78 ± 0.4
AATATAATAATATTTTGTACATATCCTATGTATGAG [XGTACX_site8601] | 8.76 ± 0.35
AACGTAAAACATATCTATCAAAATAAATCATTAATC [TGCATGCA_negctrl_site68] | 8.79 ± 0.41
CACGCACGCAGACACACACACACACGCACATATATA [CACACA_site6303] | 10.2 ± 0.38
ACAACAATTCACTTGATGCACTAACCAAAAAAATAA | 8.78 ± 0.35
CTAAATAACTTAAGGTGTACGTTTCCAATAAAAAAA [XGTACX_site1742] | 8.56 ± 0.49
ACATATAAAATGATGCGTACATATTTGATCATATAC [XGTACX_site153] | 9.03 ± 0.3
GTATATTAATAAACATGTACACAATTTATTTATATT [XGTACX_site1012] | 8.87 ± 0.44
TTTTTTTTTTGAAGTGCATGTTACGATGAAAAAAAA [TGCATGCA_site64] | 8.21 ± 0.3
TTTTTTTTTAAATGTTGTACATTATATTTGTGTATA [XGTACX_site8354] | 8.7 ± 0.46
CGTATGTGCGGACATGCATGCAATATACAAGAAAAA [TGCATGCA_site145] | 9.03 ± 0.38
TGTAGCCTGGAGAAGAGTACATAGTATCTGGTAGCT [XGTACX_site4943] | 8.79 ± 0.49
CCATATAAAATATAAAAACACACGTATATATACATA [CACACA_site1511] | 8.93 ± 0.34
TGTACATATATATAGATATATATAGATATATATATA [CACACA_negctrl_site1678] | 8.91 ± 0.29
ATTCAATCTTTTAATACACACAATTTATTTCAAAAC [CACACA_site835] | 8.65 ± 0.44
ACAAAATGTAGAAAATGTACAAAATTAACAAAAGAA [XGTACX_site5019] | 9.11 ± 0.63
TATCCTAACTTTAGATGTACACAAATAAAAAAAAAA [XGTACX_site4491] | 8.45 ± 0.47
AAAATACAAACAAGTGGTACTGTTTATAAATGGTTG [XGTACX_site1503] | 8.81 ± 0.49
TGTCTTGTAAATTATTGTACTATTTAAAGTATACAA [XGTACX_site7864] | 8.62 ± 0.26
TTGTATATATTTATATGTACATATATTACTTTTGCT [XGTACX_site2449] | 8.94 ± 0.45
AAATAATGGTTAGCTACACACAAAGCATTTTTTGAA [CACACA_site1016] | 8.93 ± 0.48
ATAATATAACAATACGCACACGTATACAAAAAAAAA [CACACA_site5703] | 9.11 ± 0.44
